# Reference: PubChem BioAssay (NCI)
# Some compounds were tested as several samples or in several runs, with calls that do not always agree.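 In brief: 96-well plates, 48 h treatment, single concentration, percent growth endpoint.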 A number of entries come with more than one value. This is not the full list of results. There may be further records. Rule for the calls: active = growth percent below 10; inactive = the rest. These are repeated runs of one drug, at the concentration stated with the values; each value is one run. Marks such as (2×) count equal records among those shown.
# How the values were obtained:
# [1] = tested on: OVCAR-5 ovarian; assay: NCI-60 one-dose screen, 48 h (100 = growth as untreated, 0 = no growth, -100 = all killed); details: 25 µM
# [2] = tested on: OVCAR-4 ovarian; assay: as above; details: 0.25 µM
smiles,measurement,setting,value
COc1cccc2c1C(=O)c1c(O)c3c(c(O)c1C2=O)C[C@@](O)(C(=O)CO)C[C@@H]3OC1CC(N)C(O)C(C)O1 (stereo not given in full),growth,[1]; runs of 1998,"active: 8.13, -2.01, -1.49, 4.87, -15.7, 3.64, -22.8, -15.8, 3.42, -4.14, -40.7, -43.4, 3.21, -12.6, -18.8, 8.05, -4.92, -33.5% and inactive: 13.4, 10.4, 12.3, 17.2, 28, 15.8%"
same,growth,[1]; runs of 1999,"active: 4.85, -8.88, -29.1, 5.42, -40.5, -100, -60.5, -88.5, -25.8, 0.247, -40.8, 3.89, -30.7, -65.6, -82.7, -45, -31.4%"
same,growth,[1]; runs of 2000,"active: -47.2, -100, -49.2, -75.4%"
same,growth,[2]; runs of 2006,"inactive: 61.2%, 75.1%"
same,growth,[2]; runs of 2007,"inactive: 80, 76.7, 61.5, 70.7, 72.4, 75.4, 80.6, 70.5, 75.9 (2×), 85.6, 65.6, 71.8, 73.5 (2×), 68.3, 64.5, 69.5, 76.5, 69.8, 77.2, 79.6, 72.7 (2×), 82.9, 87.3, 82.4, 89.7, 77.4, 72.8, 43.9, 78.9, 70.3, 79.4, 79.8, 81, 61.2, 77.9, 69.9, 57.7, 58.9, 96.7, 85.5%"
same,growth,[2]; runs of 2008,"inactive: 67.2, 70.9, 80.6, 70.7, 75.3, 68.4 (3×), 66.1, 59.5, 63, 80.1, 76.3, 76, 82.4, 87.7, 35.5, 55.5, 59.4, 63.4, 61, 62.2 (2×), 54.3, 58.6 (2×), 56.6, 52.2, 66, 59.1, 86.3, 58.4 (2×), 52.7, 51, 68.7 (2×), 50, 58, 43.4, 60.1, 57.5, 65.5, 72.2, 72.4, 68, 60.3, 64.4, 74, 77.5, 16.3, 62.5, 74.1, 44.8, 80.2, 70.2, 62.9, 64.8%"
same,growth,[2]; runs of 2009,"inactive: 51.6, 57.9, 70.9 (2×), 63.3 (2×), 60, 62.4, 67, 76.5, 69.1, 70.5, 66.9 (3×), 78.6, 76.8, 66.8 (4×), 65 (2×), 68.9, 66.5, 65.2, 57.7 (2×), 59.7, 59.4, 60.9, 60.1, 56.5, 64.7 (2×), 75.9, 68.6, 61.9, 69.8, 62 (2×), 67.9, 59.8, 56.4, 55.8, 63.2, 58.1, 62.9, 69.7, 75, 65.8 (2×), 64.3, 63.6, 71.9, 61.3, 61.1, 58.8, 59.9, 67.8, 63.9, 46.9, 60.3, 56.9, 59.2, 79.7, 72.8, 88.3, 86.1, 76.1, 78.2, 69.5, 78.9%"
same,growth,[2]; runs of 2010,"inactive: 73.8, 76.5 (2×), 76.1, 74.3, 72.1 (2×), 73.3, 74.5, 68.8, 76, 75.9, 68, 65.8, 62.2, 72.6, 69.8, 63.6, 67.6, 62.9 (2×), 61.9, 76.6, 62.5, 68.6, 74, 65.2, 79.5 (2×), 81.4, 59, 64.7, 56.6, 60, 68.9, 67.2, 52.2, 71.2, 77.8, 70.9, 69.4, 71.3, 64.8, 63.8, 75.4, 74.6 (2×), 80, 71.4, 70.2, 64.5, 65.6, 67.1, 63.5, 70.4, 72%"
same,growth,[2]; runs of 2011,"inactive: 73.6, 69.5, 59.2, 67.1, 67.3, 67.4, 63.2 (2×), 68.5, 64.9, 62.1, 69.6, 64.7, 75.2, 73.2 (2×), 72.2, 60.3, 82.5, 76.1 (2×), 72.8, 77.3, 73.3, 87.7, 77.7, 85.7, 74.7, 79.7, 82.7, 72.6, 59.4, 74.5, 79.9 (2×), 63.5, 74, 71.1, 53.7, 62.7 (2×), 64.8, 65.1, 64.6 (2×), 70.1, 70.8, 64, 73, 76.4, 69.8, 56.3, 53.2, 70.3, 66.4, 69, 67, 77.9, 67.2, 75.8, 72%"
same,growth,[2]; runs of 2012,"inactive: 76.5, 65.1, 69.3, 68, 67.8, 60.2, 73, 75.9, 73.1, 62.7, 66.7, 61.1, 65.2 (2×), 73.6, 52.5, 60.1, 65, 63.6, 64.4, 67.4, 68.9, 68.5, 69 (2×), 72.6, 63.9, 78 (2×), 79.3 (2×), 87.1, 77.8 (3×), 82.2 (2×), 63.7, 72.4, 71.7, 75.3, 67.6 (2×), 66.4, 81.5, 71.5 (2×), 78.2, 80.3, 77.9, 81, 83.9, 91.5, 72.8, 80, 77.2, 79.7, 90.7, 69.7, 68.6, 71.6, 73.5, 70.9, 68.8, 43.7, 55.4, 65.4, 67.9, 80.8%"
same,growth,[2]; runs of 2013,"inactive: 61.2, 76.7, 80.5, 78.4, 84.4 (4×), 76.6 (2×), 77.1, 80.9, 74.4 (2×), 79.1 (2×), 72.2, 83.9, 63.3, 69.8, 74.6, 83.2, 76.1, 87.1, 83.6, 78.2 (3×), 71, 80.3, 82.8, 78.9, 82.9 (2×), 74.7 (2×), 74, 83.1, 71.3, 68.8, 78.8, 71.7, 81.5 (2×), 81.1, 79.7, 92.1, 82.4, 72.4 (2×), 79.3, 96.8, 94, 70.5, 90.2, 91.3, 85.1, 75.1, 79.6, 62.1 (2×), 70.8, 60.7 (2×), 71.8, 64.6, 67.6, 73.7, 65.9, 60.1, 63.4, 67.5%"
same,growth,[2]; runs of 2014,"inactive: 66.9 (2×), 71.3, 68.6, 65.6, 59.3, 72.1, 60.6 (2×), 56.4, 67.9 (2×), 64.6 (2×), 65.5, 66.7, 66.8 (2×), 58.7, 67.1, 64.4, 67.8, 64 (3×), 66.4 (3×), 66.3 (3×), 73 (2×), 64.3, 63.4 (2×), 62.7, 63.3, 69.1 (2×), 70, 62.5, 63, 61.5 (2×), 60, 70.4, 69.9 (2×), 66 (2×), 63.8, 59.2, 67.4, 61.3, 62, 60.9, 60.3 (2×), 61.6, 58.2, 60.4, 60.7, 63.2, 73.1, 71.8, 56.2, 56.1, 69.2, 62.8, 71, 67.3, 70.7 (2×), 65.7, 68.3, 65.8 (2×), 68, 70.9, 66.6, 65.4, 58.5, 74.3, 72.7, 73.2, 61.9%"
same,growth,[2]; runs of 2015,"inactive: 69.1, 70.3 (4×), 67.2 (2×), 60.1, 69.3, 74.4, 66.7, 75.3 (2×), 66.6, 76.5 (2×), 72.5 (2×), 62.8, 71.2, 82, 67.6, 65, 62.6 (2×), 44.7, 47.6, 54.8, 64.5 (2×), 73, 83, 68, 62.9 (2×), 64.8, 67.1 (2×), 74.8, 73.3, 72.2, 71.1, 73.8, 72.3, 63.6, 63.7, 58.1, 71.4, 67.5 (2×), 65.1, 68.7 (2×), 61.7, 71.5 (2×), 65.4, 54.6, 64.7, 69.8, 58.3, 48.9, 50.3, 58.2, 84.9, 64.6, 73.1, 68.5, 72.1 (2×), 82.5, 74.2, 79.1, 77.2 (2×), 79.8 (2×), 81, 78, 68.9, 69.6, 61.8, 70.2, 70.5, 80.5, 78.5, 66, 67.3, 68.8, 69.4%"
same,growth,[2]; runs of 2016,"inactive: 75.1, 76.7 (2×), 72, 69.8, 77.3, 72.3, 70.8, 65.9, 71.9, 64.3, 70.4, 69.3, 71.3 (3×), 68.2, 60.6, 68.4 (2×), 63.1, 65.3, 59.2, 57, 69, 60.7, 60.5, 62, 63.7, 59.6, 67.9, 63.8, 65.5, 69.4, 74.7, 67.2, 68.5, 67.5 (2×), 68.3, 67.8, 66.9, 72.8, 70.5 (4×), 74.9, 78.9 (2×), 74.4 (2×), 79.9, 78.7 (2×), 72.1, 80.1, 73.5, 78.4, 71.8, 67, 73, 76.3, 77.9, 79, 73.9, 85.5, 81, 94.8, 83.4, 81.9, 80.3, 79.6, 83.2, 84.6 (2×), 88.8, 76.8, 79.7 (2×), 78.8, 85.4, 87.4, 85.8, 79.3, 73.8, 82, 74.2 (2×), 76.1, 72.2%"
same,growth,[2]; runs of 2017,"inactive: 73.9, 73.3 (3×), 74.9, 74.2, 67.8 (2×), 73 (2×), 71 (3×), 68.4, 61.3, 65.5, 67.1 (2×), 63.1, 69.1 (2×), 60.8, 67.6, 69.6, 63.4, 62.2, 62.1, 65.7, 64.5, 67.3, 71.1 (2×), 66.3, 69, 69.5, 67.5 (3×), 68.5, 70.9, 72.8, 81, 76.4, 66 (2×), 74, 71.7, 66.6, 72 (2×), 62.6, 68.6 (2×), 63.9 (2×), 68.7, 74.8, 68.8, 64.2, 68 (2×), 72.6, 71.3 (2×), 69.9 (2×), 82, 77.7, 70.2, 66.7, 75, 74.5, 66.1, 66.5, 69.4 (2×), 74.3, 89.3, 69.2, 70.7, 61.5, 60.3, 74.6, 71.9, 87.2, 90, 94.2%"
